The supplement of paper PMC3334620
In all, about 33,000 sequences were measured (“E-score (-0.5 to 0.5)”: median about -0.013, highest 2% from about 0.3 on). The list shows a part of the results.

These sequences were tested against T1, Msn1 (UniProt P22148) (assay: PBM E-score (8-mer binding enrichment) (E-score (-0.5 to 0.5)); higher = stronger / more preferred TF binding; most listed sequences are background and not binding sites). Settings: protein concentration: 200 nM; construct: GST-full length.
T1 sequence: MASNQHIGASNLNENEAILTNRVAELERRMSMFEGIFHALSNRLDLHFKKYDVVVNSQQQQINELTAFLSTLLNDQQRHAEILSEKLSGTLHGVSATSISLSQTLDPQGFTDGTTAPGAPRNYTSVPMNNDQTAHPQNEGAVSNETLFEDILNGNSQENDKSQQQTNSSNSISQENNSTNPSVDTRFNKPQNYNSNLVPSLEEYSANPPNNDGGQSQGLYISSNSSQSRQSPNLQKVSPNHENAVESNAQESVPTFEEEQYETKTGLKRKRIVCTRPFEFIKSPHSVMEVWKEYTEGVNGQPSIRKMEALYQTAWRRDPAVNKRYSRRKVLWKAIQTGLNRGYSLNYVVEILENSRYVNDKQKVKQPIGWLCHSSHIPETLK
Description: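 Universal 'all 10-mer' protein binding microarrays (Agilent AMADID 015681) probed with GST-tagged S. cerevisiae TFs (full-length or DBD) made by in vitro transcription/translation (PURExpress), about 100-200 nM. Bound TF was detected with fluorescent anti-GST. Each ungapped 8-mer (which stands for itself and its reverse complement) is scored by the PBM enrichment score (E-score), a modified Wilcoxon-Mann-Whitney statistic from -0.5 to +0.5, computed with the Universal PBM Analysis Suite. Scale: above 0.35 generally sequence-specific binding.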

Sequence | PBM E-score
GCACTGTA | 0.113
AATGACCT | -0.0518
ATTGGAAC | 0.0992
CTCTGTTA | -0.0542
CCATGGAA | 0.126
GTGTGGAA | -0.108
AACAGCCA | 0.0435
ACCTCGTG | 0.0137
CTCTAATA | 0.0908
ATGTCGTC | 0.191
ACTTCGCC | 0.0719
CCTTTACA | -0.0441
CCACGATA | 0.138
AAGGATAC | -0.00372
CGAGTTCA | -0.0815
GGGCCTAA | -0.0118
AAACTGAA | 0.0948
ACGACCGG | -0.212
ATTATGTG | 0.151
AAGGGTTC | -0.0924
ACTTATTG | 0.046
ATTAGCCC | -0.0474

Sequence | PBM E-score
ATGCCTGA | -0.0658
GTCCTTCA | 0.246
CTCCCAAG | -0.135
AGATTGCC | -0.0449
CGACAATA | 0.334
CATCCGTC | 0.0891
TCGCATAA | 0.148
GTGATACA | 0.0682
AAACCCTG | -0.0419
CACTCGGG | -0.0597
CCCCAGCG | -0.241
TACCCCAA | 0.0746
CATACAAA | 0.287
AACGAGAC | 0.108
AAAATTAG | 0.178
AGGTGCTG | -0.164
AATACAGT | -0.0154
AAAGGGTT | 0.0188
CGAACGTC | -0.0117
AAGTTTAA | -0.0616
GACCTGCA | -0.0965
ACATACAA | 0.225

Sequence | PBM E-score
CTCACGTA | -0.304
ATCATTTA | 0.11
GGAAGCAA | -0.132
GACACGGC | 0.197
CATAAGGC | -0.094
ATTGCGCG | 0.156
TCGCAGCA | 0.156
CACGCCCG | -0.00176
CCAGATTC | -0.389
ATGTGGAG | -0.0453
GAATGCCC | -0.207
GAAACATC | -0.0562
ACCTAATC | 0.092
AAAGATAT | 0.113
AAAGGATC | 0.0854
CGTCATCC | 0.0181
CCTGATCA | -0.143
CCTGGGAA | -0.131
ACGGTCAA | -0.0149
CCGATTCG | 0.269
ATAACCCG | -0.102
AACGATAA | -0.0638

Sequence | PBM E-score
CATTACGA | -0.0951
GCACAAAA | 0.099
CTCGCAAA | 0.0568
GTCCCTAA | 0.234
GACTGTAC | -0.198
CACCATCG | -0.224
ACCCTCTC | -0.226
AGCAGAGC | -0.114
AGGACGTC | 0.177
CCTCTAAA | -0.123
AGCATCTC | -0.145
ATAAAGGG | -0.187
GCCTTGCA | -0.11
ACAATGCC | -0.0526
AATCACCT | 0.0451
AGAGCGGA | -0.0348
GTTTAGGA | 0.00119
ATTGGCGA | -0.0991
CTTGGATA | 0.0413
ACCAGTAG | -0.0698
